The text below walks through data of the RNAGym collection of RNA variant scans (doi:10.7554/elife.90254).

First the molecules themselves.
B1: LINE1-full (parent)
chain: UACGUAGGUGGUUUUCCCCUGAUAGUGCUAAGGGGGCCUGGAAGUUUGGACUGGGCAGAGCUCAACACAGCGUGGCAAAGUGGCUGUGGCUAGACUGCCUCUCUGGAUUCCUCGUCACUCAGCAGGGCAUCUCUGAGAGAAAUGCC

The source gives no read counts; variants with many changes may rest on few reads.

In this series the parent is B1. Put plainly: self-cleavage, relative activity (ratio to wild type); higher = more cleavage; in vitro, sequencing; the parent is a self-cleaving ribozyme.
Consider UACGUAGGUGGUUUUCCCCUGAUAGUGCUAAGGGGGCCUGGAAGUUCGGACUGGGCAGGGCUCAACACAGCGUGGCAAGGUGGCUGUGGCUAGACUGCCUCUCUGGAUUCCUCGUCACUCAGCAGGGCAUCUCUGAGAGAAAUGCC, for which the self-cleavage is 0.4.
The same measure for UACGUAGGUGGUUUUCCCCUGAUAGUGCUAAGGGGGCCUGGAAGUUCGGAUUGGGCAGAGCUCAACACUGCGUGGCAAGGUGGCUGUGGCUAGACUGCCUCUCUGGAUUCCUCGUCACUCAGCAGGGCAUCUCUGUGAGAAAUGCC: 0; for UACGUAGGUGGUUUUCCCCUGAUAGUGCUAAGGGGGCCUGGAAGUUCGGACUGGGCAGAGCUCAACGCAGCGUGGCAAAGUGGCUGUGGCUAGACUGCCUCUCUGGAUUCCUCGUCACUCAGCAGGGCAUCUCUGAGGGAAAUGCC: 1.53; for UACGUAGGUGGUUUUCCCCUGAUAGUGCUAAGGGGGCCUGGAAGUUCGGACUGGGCAGAGCUCAACACAGCGUGGCAAAGUGGCUGUGGCUAGACUGCCUCUCUGGAUUCUUCGUCACUCAGCAGGGCAUCUCUGAGAGAGGUGCC: 1.16.
The same measure for UACGUAGGUGGUUUUCCCCUGAUAGUGCUAAGGGGGCCUGGAAGUUCGGACCGUGCAGAGCUCAACACAGCGUGGCAAAGUGGCUGUGGCUAGACUGCCUCUCUGGACUCCUCGUCACUCAGCAGGGCAUCUCUGAGAGAAAUGCC: 1.48; for UACGUAGGUGGUUUUCCCCUGAUAGUGCUAAGGGGGCCUGGAAGUUCGGACUGGGCAGAGCUCGACACAGCGUGGCAAAGUGGCUGUGGCCAGACUGCCUCUCUGGAUUCCUCGUCACUCAGCAGGGCAUCUCUGAGAGAAAUGCC: 0.
For UACGUAGGUGGUUUUCCCCUGAUAGUGCUAAGGGGGCCUGGAAGUUCGGACUGGGCAGAGCUCGACACAGCGUGGCGAAGUGGCUGUGGCUAGUCUGCCUCUCUGGAUUCCUCGUCACUCAGCAGGGCAUCUCUGAGAGAAAUGCC, the self-cleavage was determined as 0.
The same measure for UACGUAGGUGGUUUUCCCCUGAUAGUGCUAAGGGGGCCUGGAAGUUCGGACUGGGCAGACCUCAACACGGCGUGGCUAAGUGGCUGUGGCUAGACUGCCUCUCUGGAUUCCUCGUCACUCAGCAGGGCACCUCUGAGAGAAAUGCC: 0.09.
Turning to UACGUAGGUGGUUUUCCCCUGAUAGUGCUAAGGGGGCCUGGAAGUUAGGACUGGGCAGAGCUCAACACAGCGUGGCAAAGUGGCUGUGGCUAGACUGCCUCUCUGGAUUCCACGUCACUCAGCAGGGCACCUCUGAGAGAAAUGCC, the self-cleavage is 1.04.
Then UACGUAGGUGGUUUUCCCCUGAUAGUGCUAAGGGGGCCUGGAAGUUCGGACUGGGCAGGGCUCAACACAGCGUGGCAAAGUGGCUGUGGCUAGACUGCCUCUCUGGACUCCUCGUCACUCAGCAGGGCAUCUCUGAGAGAAAUGCC, with 0.
Then UACGUAGGUGGUUUUCCCCUGAUAGUGCUAAGGGGGCCUGGAAGUUCGGACAGGGCAGAGCUCAACACAGCGUGGCAAAGUGGCCGUGGCUAGACUGCCUCUCUGGAUUCCUCGUCACUCAGCAGGGCAUCUCUGAGAGAAAUGCC, with 0.37; and UACGUAGGUGGUUUUCCCCUGAUAGUGCUAAGGGGGCCUGGAAGUUCGGACUGGGCAGAGCUCAACACAGCGUGGCGAAGUGGCUGUGGCUAGACUGCAUCUCUGGAUUCCUCGUCACUCAGCAGGGCAUCUCUGAGAGAAAUGCC, with 1.24.
The same measure for UACGUAGGUGGUUUUCCCCUGAUAGUGCUAAGGGGGCCUGGAAGUUCGGACUGGGCAGAGCUCAACACAGCGUGGCAUAGUGGCUGUGGCUAGACUGCCUCUCAGGAUUCCUCGUCACUCAGCAGGGCGUCUCUGAGAGAAAUGCC: 2.09; for UACGUAGGUGGUUUUCCCCUGAUAGUGCUAAGGGGGCCUGGAAGUUCGGACUGGGCAGAGCUCAACUCAGCGCGGCAAAGUGGCUGUGGCUAGACUGCCUCUCUGGAUUCCUCGUCACUCAGCAGGGCAUCUCUGAGAGAAAUGCC: 0.
As for UACGUAGGUGGUUUUCCCCUGAUAGUGCUAAGGGGGCCUGGAAGUUCGGACUGGGCUGAGCUCAACACAGCGUGGCAAAGUGGCUGUGGCUAGACUGCCUCUCUGGAUUCCUCAUCACUCAGCAGGGCAUCUCUGAGAGAAAUGCC, the self-cleavage stood at 0.19.
The same measure for UACGUAGGUGGUUUUCCCCUGAUAGUGCUAAGGGGGCCUGGAAGUUCGGACUGGGCAGAGCUCAACACAGCGUGGCAAAGUGGCUGUGGCUAGACUGCCUCUCUGGAUUCCUCGUCACUCAGCAGGGCUUCUCUGAGAGAGAUGCC: 1.69.
With UACGUAGGUGGUUUUCCCCUGAUAGUGCUAAGGGGGCCUGGAAGUUCGGACUGGGCAGAGCUCAACACAGCGUGGCUAAGUGGCUGUGGCUAGACUGCCUCUCUGGAUUCCUCGUCACUCAGCAGGGCAUCUCUGAGAGAGAUGCC, the self-cleavage was determined as 1.91.
The same measure for UACGUAGGUGGUUUUCCCCUGAUAGUGCUAAGGGGGCCUGGAAGUUCGGACUGGGCAGAGCUCAACACAGCGUGGCAAAGUGGCUGUGGCUAGACUGCUUCUCUGGAUUCCUCGUCACUCAGCAGGGCAUCUCUGAGAGAGAUGCC: 1.21; for UACGUAGGUGGUUUUCCCCUGAUAGUGCUAAGGGGGCCUGGAAGUUCGGACUGGGCAGAGCUCAACACGGCGCGGCAAAGUGGCUGUGGCUAGACUGCCUCUCUGGAUUCCUCGUCACUCAGCAGGGCAUCUCUGAGAGAAAUGCC: 0; for UACGUAGGUGGUUUUCCCCUGAUAGUGCUAAGGGGGCCUGGAAGUUCGGACUGGGCAGAGCUCAACACAGCGUGGCGAAGUGGCUGUGGCUAGACUGCCUCUCUGGAUUCCUCGUCACUCAGCAGGGCAUCUCCGAGAGAAAUGCC: 1.92.
The same measure for UACGUAGGUGGUUUUCCCCUGAUAGUGCUAAGGGGGCCUGGAAGUUCGGACCGGGCAGAGCUCAACACAGCGUGGCAAAGUGGCUGUGGCUAGACUGCCUCUCUGGAUUCCUCGUCACUCAGCAGGACAUCUCUGAGAGAAAUGCC: 1.64; for UACGUAGGUGGUUUUCCCCUGAUAGUGCUAAGGGGGCCUGGAAGUUCGGACUGGGCAGAGCUCAACACAGCGUGGCAAAGUAGCUGUGGCUAGACUGCCUCUCUGGAUUCCUCGUCACCCAGCAGGGCAUCUCUGAGAGGAAUGCC: 1.95.
Then UACGUAGGUGGUUUUCCCCUGAUAGUGCUAAGGGGGCCUGGAAGUUCGGACUGGGCAGAGCUCAACACGGCGUGGCAAAGUGGCUGUGGCUAGACUGCCUCUCUGGAUUCCUCGUCACUCUGCAGGGCAUCUCUGAGAGAAAUGCC, with 1.53; and UACGUAGGUGGUUUUCCCCUGAUAGUGCUAAGGGGGCCUGGAAGUUAGGACUGGGCAGAGCUCAACACAGCGUGGCAAAGUGGCUGUGGCUAGACUGCCUCUCUGGAUUCCUCGUCACUCAGCAGGGCAUCUCCGAGAGAGAUGCC, with 1.87; and UACGUAGGUGGUUUUCCCCUGAUAGUGCUAAGGGGGCCUGGAAGUUCGGACUGGGCAGAGCUCAACACAGCGUGGCAAAGUGGCUGUGGCUAGACUGCCUCUCUGGAUUCCUCGUCACUCAGCAGGGCGUCUCUGUGAGAAAUGCC, with 1.49.
As to UACGUAGGUGGUUUUCCCCUGAUAGUGCUAAGGGGGCCUGGAAGUUCGGACUGGGCAGAGCUCAACACAGCGUGUCAAAGUGGCAGUGGCUAGACUGCCUCUCUGGACUCCUCGUCACUCAGCAGGGCAUCUCUGAGAGAAUUGCC, the self-cleavage is 0.15.
The same measure for UACGUAGGUGGUUUUCCCCUGAUAGUGCUAAGGGGGCCUGGAAGUUCGGACUGGGCAGAGCUCAACACAGCGUGGCUAAGUGGCUGUGGCUAGACUGCCUCUCUGGAUCCCUCGUCACUCAGCAGGGCAUCUCUGAGAGGAGUGCC: 0.55.
The same measure for UACGUAGGUGGUUUUCCCCUGAUAGUGCUAAGGGGGCCUGGAAGUUCGGACUGGGCGGAGCUCAACACAGCGUGGCAUAGUGGCUGUGGCUAGACUGCCUCUCUGGAUUCCUCGUCACUCAGCAAGGCAUCUCUGAGAGAGAUGCC: 2.21; for UACGUAGGUGGUUUUCCCCUGAUAGUGCUAAGGGGGCCUGGAAGUUCGGACUGGGCAGAGCUCAACGCAGCGUGGCAAAGUGGGUGUGGCUAGACUGCCUCUCUGGAUUCCUCGUCACUCAGCAGGGCAUCUCUGAGAGAAAUGCC: 0.03; for UACGUAGGUGGUUUUCCCCUGAUAGUGCUAAGGGGGCCUGGAAGUUCGGACUGGGCAGAGCUCAACACAGCGUGGCGAAGUGGCUGUGGCUAGACUGCCUCUCUGGAUUCCUCGUCACUCAGCAGGGCAACUCUGAGAGAAAUGCC: 1.84.
Then UACGUAGGUGGUUUUCCCCUGAUAGUGCUAAGGGGGCCUGGAAGUUCGGACUGGGCAGAGCUCAACACAGCGUGGCAAAGUGGCUGUGGCUAGACUGCCUCUCUGGAUUCCUCGUCACUCAGCUGGGCAUCUCCGAGAGAAAUGCC, with 1.28; and UACGUAGGUGGUUUUCCCCUGAUAGUGCUAAGGGGGCCUGGAAGUUCGGACUGGGCAGAGCUCAACACUGCGUGGCAAAGUGGCUGUGGCUAGACAGCCUCUCUGGACUCCUCGUCACUCAGCAGGGCACCUCUGAGAGAAAUGCC, with 0.
With UACGUAGGUGGUUUUCCCCUGAUAGUGCUAAGGGGGCCUGGAAGUUCGGACUGGGCAGGGCUCAACACAGCGUGGCAAAGUGGCUGUGGCUAGACUGCCUCUCUGGAUUCCUCGUCACUCAGCAGGGCAUCUCUGAGAGAGAUGCC, the self-cleavage amounted to 0.29.
UACGUAGGUGGUUUUCCCCUGAUAGUGCUAAGGGGGCCUGGAAGUUCGGACUGGGCAGAGCUCAACACAGCGUGGCAAAGUGGCUGUGGCUAGACUGCCUCUCUGGAUUCCUCGUCACUCAGCAGGGCAUCUCUGAGUGAGAUGCC: the self-cleavage was 1.28.
The same measure for UACGUAGGUGGUUUUCCCCUGAUAGUGCUAAGGGGGCCUGGAAGUUCGGUCUGGGCAGAGCUCAACACAGCGUGGCAAAGUGGCUGUGGCUAGACUGCCUCUCUGGAUUCCUCGUCACUCAGCAGGGCAUCUCUGAGGGAAAUGCC: 0.85; for UACGUAGGUGGUUUUCCCCUGAUAGUGCUAAGGGGGCCUGGAAGUUCGGACCGGGCAGAGCUCAACACAGCGUGGCAAAGUGGCUGUGCCUAGACUGCCUCUCUGGAUUCCUCGUCACUCAGCAGGGCAUCUCUGAGAGAAAUGCC: 0.08; for UACGUAGGUGGUUUUCCCCUGAUAGUGCUAAGGGGGCCUGGAAGUUCGGACUGGGCGGAGCUCAACACAGCGUGGCAAAGUGGCUGUGGCUAGACUGCCUCUCUGGAUUCCCCGUCACUCAGCAGGGCAUCUCUGAGAGAAAUGCC: 0.
Then UACGUAGGUGGUUUUCCCCUGAUAGUGCUAAGGGGGCCUGGAAGUUCGGACUGGUCAGAGCUCAACACAGCGCGGCAAAGUGGCUGUGGCUAGACUGCCUCUCUGGAUUCCUCAUCACUCAGCAGGGCAUCUCUGAGAGAAAAGCC, with 0.86.
The same measure for UACGUAGGUGGUUUUCCCCUGAUAGUGCUAAGGGGGCCUGGAAGUUCGGACUGGGCAGAGCUCAACACAGCGUGGCAAAGUGGCUGUGGCUAGCCUGCCUCUCUGGAUUCCUCGUCACUCAGCAGGGCAUCUCUGAGAGAAGUGCC: 0.11.
